Most of the hits are listed elsewhere, so they are rarer here than in the full data. Records with an inconclusive call do not appear. Activity calls are given as the source filed them. Calls come from the whole dose curve; as a rule, active = well fitted curve in the direction sought with a large enough effect; inconclusive = small, poorly fitted or top-dose-only effect, or effect the other way; inactive = no such curve, though single readings can be large or run the other way.
Each compound was assayed against Cytochrome P450 1A2 (Homo sapiens) (UniProt P05177) (assay: Cytochrome panel assay with activity outcomes). Details: recombinant CYP, pro-luciferin dealkylation, luminescence, p450-cyp1a2; at 25.6 µM (top of the series).
Sequence of UniProt P05177 (P05177 whole entry, looked up): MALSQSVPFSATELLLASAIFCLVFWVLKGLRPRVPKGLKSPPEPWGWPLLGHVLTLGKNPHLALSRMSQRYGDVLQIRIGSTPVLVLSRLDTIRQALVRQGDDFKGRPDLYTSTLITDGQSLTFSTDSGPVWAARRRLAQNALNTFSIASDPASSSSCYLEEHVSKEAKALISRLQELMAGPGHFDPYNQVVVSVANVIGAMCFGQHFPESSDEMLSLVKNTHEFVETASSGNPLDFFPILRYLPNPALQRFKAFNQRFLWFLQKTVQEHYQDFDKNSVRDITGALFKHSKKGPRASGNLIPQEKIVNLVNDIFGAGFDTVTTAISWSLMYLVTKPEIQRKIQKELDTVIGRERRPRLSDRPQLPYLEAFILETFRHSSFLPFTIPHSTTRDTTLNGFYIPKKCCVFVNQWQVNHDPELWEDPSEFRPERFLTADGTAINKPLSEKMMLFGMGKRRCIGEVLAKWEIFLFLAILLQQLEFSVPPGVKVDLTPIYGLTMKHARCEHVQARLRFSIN
`CC(=O)[C@@H]1CC[C@H]2[C@H]3CC[C@H]4C[C@@H](O)CC[C@]4(C)[C@@H]3C(=O)C[C@@]12C` was tested, and the activity, negative = inhibition was inactive: -16.7%.

Source: PubChem BioAssay AID1851 (National Center for Advancing Translational Sciences (NCATS), 2009)
% is set by controls: 0 for no effect and ±100 for the full control effect.
